Source: PubChem BioAssay AID651820 (National Center for Advancing Translational Sciences (NCATS), 2012)
Screen size: about 340,000 compounds; about 12,000 (3.5%) were called active. The shares of active, inactive and inconclusive entries below differ from those in the screen. Calls follow the shape of the dose curve; as a rule, active = well fitted inhibition curve with a large enough effect; inconclusive = small, poorly fitted or top-dose-only effect, or another doubt; inactive = no such curve, though single readings can be large or run the other way. No potency is given beside an inconclusive call; the fits are too rough.

assay: qHTS Assay for Inhibitors of Hepatitis C Virus (HCV); settings: Huh7.5.1 HCVcc-Cre (HCVcc is cell-culture hepatitis C virus) infection, luciferase reporter, 44 h; activity change, negative = inhibition: at 41.8 µM (top of the series) unless noted
How it was run: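 Cells (1,000/well) were plated 4 h before compound, then infected with HCVcc-Cre virus (~0.5 moi). After 44 h further culture, infection was read as luciferase luminescence following a 15 min substrate incubation at room temperature.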
% is scaled to controls: 0 for no effect and ±100 for the full control effect; potency is read from the fitted curve at half-maximal effect; tags tell the direction and shape of the fitted curve.

Compound	Potency	activity change, negative = inhibition
COc1cc(OC)c2ccc(=O)oc2c1C(CC(=O)N1CCN(c2ccccc2)CC1)c1ccc2c(c1)OCO2 (configuration not stated)	inconclusive [inhibitor, single point]	–
COc1ccc(NC(=O)c2cc(-c3cc(C)cc(C)c3O)n[nH]2)cc1Cl	active: 8.91 µM	–
COc1ccc(C(=S)N2CCOCC2)cc1OC(=O)c1ccccc1	–	inactive: 6.27%
CC(C)(C)OC(=O)N(CCc1ccccc1)Cc1ccc(OCc2cccc(NC(=O)C3CC3)c2)cc1	active: 12.6 µM	–
C=CCn1c(C)nc2c(sc3nc4c(cc32)COC(C)(C)C4)c1=O	inconclusive [inhibitor, partial curve]	–
CC(C)N1CCC(N2CCN(Cc3cnc(-c4ccccc4)s3)CC2CCO)CC1 (configuration not stated)	inconclusive [inhibitor, partial curve]	–
COc1ccc(Nc2nc(-c3cccnc3)nc3ccccc23)cn1	active: 7.94 µM	–
CN(CC(=O)NCc1ccc2c(c1)OCO2)S(=O)(=O)c1ccc(Cl)cc1	inconclusive [inhibitor, single point]	–
O=C(CNC(=O)c1ccc2ccccc2c1)NCc1ccccc1F	–	inactive: 8.27%
CC(=O)Oc1ccc(C(=O)Nc2cccc(C(=O)c3ccc(C)c(C)c3)c2)cc1	inconclusive [inhibitor, single point]	–
CC(=O)OC1CC(OC2C(O)CC(OC3C(O)CC(OC4CCC5(C)C(CCC6C5CCC5(C)C(C7=CC(=O)OC7)CCC65O)C4)OC3C)OC2C)OC(C)C1OC1OC(CO)C(O)C(O)C1O (configuration not stated)	active: 0.794 µM	–
Cc1ccsc1CN(C)Cc1nc(C2CC2)no1	–	inactive: 6.27%
c1ccc(CCn2c3ccccc3c3nnc(SCc4ccc5nonc5c4)nc32)cc1	inconclusive [inhibitor, single point]	–
COCCNc1nc(CSc2ccccc2)nc2sc(C)c(C)c12	active: 25.1 µM	–
CCN(Cc1ccccc1)C(=O)COc1ccccc1	–	inactive: 26.7%
COc1ccc(NC(=O)CCCN2C(=O)CCC2=O)cc1Cl	–	inactive: 7.24%
Cc1ccc(C(C(=O)NCC2CCCO2)N(C(=O)c2snc(C(N)=O)c2N)c2ccc(C)c(C)c2)o1 (configuration not stated)	inconclusive [inhibitor, single point]	–
Cc1c(Cl)cnc(NC(=O)COC(=O)c2cccc(S(=O)(=O)N3c4ccccc4CC3C)c2)c1Cl (configuration not stated)	–	inactive: 16.5%
COc1ccc(-c2c(C(C)=O)c(C)nc3sc4c(c23)NC(c2ccccc2)NC4=O)cc1 (configuration not stated)	–	inactive: -11.5%
COc1ccc(NC(=O)/C(Cl)=C(/Cl)S(=O)Cc2ccccc2)cn1 (configuration not stated)	active: 0.794 µM	–
CC1Cc2ccccc2N1C(=O)c1ccnc(C(C)(C)C)c1 (configuration not stated)	inconclusive [inhibitor, partial curve]	–
CC(C)Nc1nnc(SCC(=O)c2c[nH]c3ccccc23)s1	inconclusive [inhibitor, single point]	–
O=C1CC(N2CCCc3ccccc32)C(=O)N1c1ccccc1 (configuration not stated)	–	inactive: -0.842%
CNc1nc2c(C)cccn2c(=O)c1C=NCc1ccccc1	–	inactive: -27.5%

Compound	Potency	activity change, negative = inhibition
CC(C)(C)OC(=O)NCCc1nnc(SCC(=O)c2ccc(Cl)cc2)o1	inconclusive [inhibitor, single point]	–
O=C(CCCc1cccs1)NCCc1c[nH]c2ccccc12	inconclusive [inhibitor, single point]	–
Cc1ccc(-n2cc(-c3ccccc3)c3c(N4CCOCC4)ncnc32)cc1	inconclusive [inhibitor, partial curve]	–
Cc1ccc(S(=O)(=O)NC[C@H]2O[C@@H](n3cnc4c(N)ncnc43)[C@H](O)[C@@H]2O)s1	inconclusive [inhibitor, single point]	–
Cc1cccc2sc(NC(=O)C3CSC4(C)CCC(=O)N34)nc12 (configuration not stated)	inconclusive [inhibitor, single point]	–
COc1ccc(OC)c(NC(=O)c2ccccc2N(C)S(=O)(=O)c2ccc(C)cc2)c1	inconclusive [inhibitor, partial curve]	–
Cc1ccc2nc(Nc3nc(C)cc(C(F)(F)F)n3)nc(C)c2c1	–	inactive: 0.525%
CCC1(C)Cc2ccccc2-c2nc(NCCCO)n(-c3ccccc3)c(=O)c21 (configuration not stated)	inconclusive [inhibitor, single point]	–
CC(C)n1nc(C(=O)OCC(=O)c2c[nH]c3ccccc23)c2ccccc2c1=O	inconclusive [inhibitor, partial curve]	–
Cc1cccc(-c2cc3nc(-c4ccccc4)cc(N4CCC5(CC4)OCCO5)n3n2)c1	inconclusive [inhibitor, partial curve]	–
CC(C)C(=O)Nc1ccc(NC(=O)CCc2ccccc2)cn1	–	inactive: 22.1%
CCCC(=O)Nc1cc(C(=O)N(C)CC(OC)OC)ccc1S(=O)(=O)c1ccc(C)cc1	inconclusive [inhibitor, partial curve, poor fit]	–
COc1ccccc1N=c1scc(-c2ccc3c(c2)NC(=O)CO3)n1CC1CCCO1 (configuration not stated)	inconclusive [inhibitor, partial curve]	–
Nc1nc(N)c(Cc2ccc(Cl)cc2Cl)c(N)n1	inconclusive [inhibitor, single point]	–
CC(C)(C)c1ccc(-n2ncc3c2CCCC3NC(=O)CCn2cncn2)cc1 (configuration not stated)	–	inactive: 0.97%
CC(=O)CCc1oc2c([N+](=O)[O-])cccc2c1-c1ccc(C)o1	active: 12.6 µM	–
CCOc1ccc(N(CC(=O)NCc2ccc(F)cc2)C(=O)c2snc(C(N)=O)c2N)cc1	–	inactive: 1.11%
CC1=C(C(=O)Nc2ccc(C)cc2)C(c2cccs2)NC(=S)N1 (configuration not stated)	–	inactive: 21.6%
Cc1nc2ccccc2c(=O)n1NCc1cc(Br)cs1	–	inactive: -10.3%
Cc1nc(C(=O)N2CCCC(N3CCN(c4ccccc4C)CC3)C2)cs1 (configuration not stated)	inconclusive [inhibitor, single point]	–
NC(=O)CN1CCN(CCN2C(=O)c3cccc4cccc(c34)C2=O)CC1	–	inactive: 17.5%
CC(=O)Nc1ccc(NC(=O)CSCc2ccccc2Cl)cc1	–	inactive: 2.97%
COc1cc(OC)c(CN2CCC(Cc3ccccc3)CC2)cc1Br	inconclusive [inhibitor, single point]	–
